Publication PMC4242493
This is one part of the list. The list includes weakly bound sequences.

molecular target: MaxL homodimer (UniProt P61244); test: universal protein-binding microarray (PBM); conditions: PBS-based mixture, 10 nM His-tagged protein dimer, 2% milk, 200 ng/uL BSA, 50 ng/uL salmon testes DNA, 0.02% TX-100; detection with Alexa 488 anti-His …; high values mean tight binding; most listed sequences are background and not binding sites; double strand, one strand shown
Sequence of UniProt P61244 (P61244 whole entry): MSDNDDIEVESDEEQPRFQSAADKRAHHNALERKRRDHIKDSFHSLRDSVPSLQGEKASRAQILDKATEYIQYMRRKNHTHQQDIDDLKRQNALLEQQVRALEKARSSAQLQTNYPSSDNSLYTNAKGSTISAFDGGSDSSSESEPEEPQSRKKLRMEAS

Row | Sequence | binding signal (normalized occupancy)
1 | CCTCTGTA | 0.0784
2 | GTGGTTAA | 0.0835
3 | TCCATTAA | 0.0794
4 | CGCCACAC | 0.0801
5 | GACGTGAC | 0.0813
6 | CAACGCCG | 0.0717
7 | GCGTTAGC | 0.0715
8 | GGATTTAA | 0.0755
9 | GTCCACCA | 0.0733
10 | CGGTCGAG | 0.0699
11 | GTCCGGTA | 0.071
12 | ACAGAAGC | 0.0727
13 | TCAAGAAA | 0.0721
14 | ACCGTGGA | 0.0797
15 | CAACCGGA | 0.0694
16 | GGAATCCC | 0.0772
17 | AGACGAGG | 0.0703
18 | TATTAGAA | 0.079
19 | GGCTAAAC | 0.0727
20 | ACCTGCCA | 0.0764
21 | ACCCGCAT | 0.0833
22 | ACCAAACT | 0.0718
23 | CGGCAAAA | 0.0703
24 | TGAGTGCA | 0.0772

Row | Sequence | binding signal (normalized occupancy)
25 | AAGGGGCA | 0.0735
26 | AAAACAGA | 0.0783
27 | AGGGTGCG | 0.079
28 | TACTGTAA | 0.0705
29 | AAGTCTGC | 0.0709
30 | GCAAAGGC | 0.0715
31 | TCGGCCGA | 0.0637
32 | CAGCTTCG | 0.0662
33 | GAAGGAAA | 0.0768
34 | GTCAGGCA | 0.0719
35 | CGTTACCA | 0.0889
36 | TCTACCAA | 0.0675
37 | ACTCAGCT | 0.0711
38 | CCCGGCTA | 0.0649
39 | ATTGCAGG | 0.0733
40 | CCTGCGAA | 0.0754
41 | ATAACGAG | 0.0783
42 | CGTCCAGA | 0.0743
43 | CTCTAATC | 0.073
44 | CTCCCCAA | 0.0813
45 | CCTCCCTC | 0.0739
46 | CGTCTTCC | 0.0739
47 | ATATTTGA | 0.0793
48 | AGTCTCTC | 0.0744

Row | Sequence | binding signal (normalized occupancy)
49 | ATCACACC | 0.0866
50 | GGTATAGA | 0.0818
51 | AGCAAATC | 0.0719
52 | AGACACCG | 0.076
53 | AGTCAGAC | 0.0684
54 | ACCCCGAA | 0.0791
55 | ATCTATGC | 0.0811
56 | GTACCGGA | 0.0709
57 | ACCTTGAT | 0.0788
58 | TCGTAGAA | 0.0759
59 | AGCGATGA | 0.0739
60 | AGTGTAGG | 0.0737
61 | AACGCGGT | 0.0808
62 | GAAGTGTA | 0.0751
63 | AGGATCGA | 0.0757
64 | TCATTCGA | 0.0781
65 | CCGCATTC | 0.072
66 | ATAAGCAT | 0.0819
67 | AACAGGCT | 0.0748
68 | AGTGATCG | 0.0765
69 | ATTGTGCG | 0.0787
70 | AGAGTATG | 0.0745
71 | TAGCTAGA | 0.0689
72 | ACGGCTAC | 0.0676

Row | Sequence | binding signal (normalized occupancy)
73 | CTCTATGA | 0.0732
74 | CGGGCTAG | 0.0706
75 | GCTAAGCA | 0.07
76 | TGAGGCCA | 0.0736
77 | CCGTATAG | 0.0757
78 | TCACTTCA | 0.0761
79 | GTGAGGGA | 0.0752
80 | ATGAGGTA | 0.0789
81 | AGCATGGA | 0.1
82 | GCGGCAAA | 0.0701
83 | AAAACCGA | 0.0688
84 | GTGTCTAA | 0.0779
85 | AGAGCCTC | 0.0723
86 | CATATAGG | 0.0875
87 | AAACATGG | 0.0874
88 | CTCGCCCC | 0.0701
89 | CAACCATA | 0.0837
90 | CGTCCTGA | 0.069
91 | CTATCTAC | 0.0757
92 | ATGTTAAT | 0.0787
93 | CCCGAGGA | 0.0728
94 | ATCAACAC | 0.0825
